Data reported in ChEMBL document CHEMBL4888484, “Replenishing the malaria drug discovery pipeline: Screening and hit evaluation of the MMV Hit Generation Library 1 (HGL1) against asexual blood stage Plasmodium falciparum ,using a nano luciferase reporter read-out” (2022).
Among all 150,000 compounds or so, about 540 (0.36%) showed an effect of 50% or more. Some of the results follow.

test system: Plasmodium falciparum; experiment: Primary screen in NF54 nanoGlo assay, in single point, at 2uM, 72h; a lower Z score goes with more inhibition; assay type: functional, Erythrocyte; details: timepoint 72 hour

SMILES	% Inhibition	Z score
Oc1ncccc1-c1nc2ccccc2[nH]1	30%	-3.82
CCc1ncc(CN(CC(=O)O)C(=O)c2ccc(F)c(C)c2)s1	-5%	0.44
N#Cc1nc(NC(=O)c2ccccc2F)[nH]c1C#N	23%	-2.05
Cc1csc(-c2nc3cc(F)c(Br)cc3c(=O)[nH]2)n1	-14%	1.91
FC(F)(F)C1CC(C2CC2)Nc2ccnn21 (configuration not stated)	-30%	3.49
Cc1nc(CCNC(=O)c2nc(N)nc3c2CCCC3)nc2c1CCC2	-12%	1.56
CC(C)(C)NC(=O)NCc1ccnc(-c2ccco2)c1	-6%	0.97
CN1CCN(C[C@H]2COc3ccccc3O2)CC1	4%	-0.76
COc1ccc(C2c3[nH]c4ccccc4c3C[C@H]3C(=O)N(c4ccccc4C(=O)NCCc4ccc(F)cc4)C(=O)N23)cc1 (some centres not stated)	20%	-3.69
CC(=O)NCC(=O)N1CCC[C@H](Oc2ccncc2)C1	7%	-0.96
CCc1ccc(C(=O)Nc2cnc(-n3cccn3)nc2)cc1	-7%	1.11
COc1ccc(C2N(c3ccccc3)OC3C(=O)N(c4ccc(C)cc4)C(=O)C32c2ccccc2)cc1 (configuration not stated)	-3%	0.44
CN(CCO)C(=O)Nc1ccc(C(F)(F)F)cc1Br	-17%	1.94
CC(=O)N1CCc2cc(CNS(=O)(=O)c3ccc(Cl)s3)ccc21	-15%	1.88
Cc1[nH]cnc1CNC(=O)CCC(C)(C)C	-6%	0.56
Cc1nnsc1CN(C)C(=O)c1ncn[nH]1	-2%	0.33
CN(CCN1CCCCC1=O)CCn1cc[nH]c1=O	-1%	0.13
NC(=O)C1(O)CCN(C(=O)Cc2csc3ccccc23)CC1	5%	-0.65
Cc1ccc(F)c(CN2CCC3(CCNCC3)C2)c1Cl	1%	-0.16
CC(O)C(C)(CNc1ncc(F)cn1)Cc1ccccc1 (configuration not stated)	-5%	0.83
COc1cccc(C2CN(C(=O)c3ccc(Cl)cc3)CC2C(=O)NCC2CC2)c1OC (configuration not stated)	-9%	0.87
Cc1cnc(C(=O)Nc2ccc3c(c2)OCCCO3)cn1	-16%	3.08

SMILES	% Inhibition	Z score
CCN(Cc1ccc(F)cc1)Cc1cc(=O)c2cccc(F)c2[nH]1	-6%	0.97
Cc1cccc(N(C)C(=O)[C@H]2CCn3ccnc3C2)c1	-16%	2.26
CCCCC(=O)N(Cc1ccccc1)C(C)C	-2%	0.21
Cc1cccc(C(=O)N[C@H]2CCN(c3ncc[nH]c3=O)C2)c1F	0%	0.05
CC(=O)c1cccc(-n2cnnc2[C@H](C)n2cccn2)c1	10%	-1.12
CCC(C)C(NC(=O)OCc1ccccc1)C(=O)Nc1cc(C)ccn1 (configuration not stated)	1%	-0.27
CCN(CCOC(C)(C)C)CC(=O)Nc1ccc(NC(C)=O)cc1	-24%	2.84
Cc1c(C(=O)Nc2cc(C)n(-c3ccc(Cl)c(Cl)c3)n2)oc2ccccc12	11%	-1.48
COc1ccc(-c2ccc(C(=O)N[C@@]3(CO)CCOC3)c(F)c2)c(F)c1	-4%	0.61
CN(CCn1cccn1)C(=O)c1ccc(C#N)cn1	12%	-1.3
Cc1ccc(NC(=O)c2cnn(CCN(C)C)c2)cc1-c1ncco1	-5%	0.46
O=C(c1ccccc1NCCC1=CCCCC1)N1CC[C@@H](O)C1	2%	-0.27
CCN(C)C(=O)Nc1cc(Cl)cc(C(=O)OC)c1	-19%	3.67
CN(C)c1ccc(C(=O)N2CCNC[C@H]2C(F)F)nc1	-3%	0.34
NC(=O)C1CCN(C(=O)CN2CCN(Cc3ccc(Cl)cc3)C2=O)CC1	-9%	1.43
Cc1n[nH]c(C)c1CNC(=O)c1cscn1	-12%	1.55
Cc1ccc(NC(=O)N(CCN2CCOCC2)C2CCOCC2)cc1C	-2%	0.38
Cn1c2c(c(=O)n3ncc(C(=O)Nc4ccc5c(c4)OCCO5)c13)CN(Cc1ccccc1)CC2	0%	0.03
O=S(=O)(NC1CC1c1ccc(F)cc1)N1CCc2ccccc2C1 (configuration not stated)	-3%	0.37
Cc1nc(NCc2nc[nH]c2C)c2sccc2n1	-5%	0.47
O=C(c1ccon1)N1CCN(C(=O)c2ccco2)CC1	1%	-0.19
CCc1ccc2c(c1)[C@H]1OCCC[C@H]1C(c1ccncc1)N2 (some centres not stated)	-4%	0.69

SMILES	% Inhibition	Z score
COc1ccc(-c2noc(-c3ccc(NCCC(C)C)nn3)n2)cc1	25%	-2.88
CCN(CC)/C(C)=N\S(=O)(=O)c1ccc(Cl)cc1	-16%	2.1
CCNc1ncc(S(=O)(=O)N(C)CC(C)(C)O)cc1Cl	-2%	0.2
Cc1cccc(CC(=O)N2CCc3[nH]nc(C(=O)N4CCc5ccccc5C4)c3C2)c1	3%	-0.29
Cc1ccncc1CC(=O)N(C[C@H]1CCCO1)c1ccc(Br)cc1	11%	-1.35
CC1(C)Cc2ccccc2/C(=C/C(=O)N2CCCCCC2)N1	0%	-0.06
COC(=O)CCc1csc(CCN2CCCC2=O)n1	-5%	0.66
COc1ccc2c(C)c(C(=O)N3CCN[C@@H]4CS(=O)(=O)C[C@@H]43)oc2c1	-6%	1.07
CC(=O)N(Cc1ccc(NCc2ccc(C)o2)cc1)C1CC1	-5%	0.72
CCC[C@H]1CN(C(=O)CCc2ccccc2C)C[C@@H]1N	-21%	2.65
COc1cc(NC(=O)c2nn(-c3ccc(Cl)cc3)c(=O)n(C)c2=O)cc(OC)c1OC	-5%	0.47
O=C1COc2ccc(C(=O)N3CCN(c4ccccc4)CC3)cc2N1	-3%	0.42
CC1(C)C[C@@]1(NC(=O)Nc1cccc(N2C(=O)CCCC2=O)c1)c1ccccc1	-4%	0.47
C#CCN(C(=O)c1cnc2n1CCOC2)C1CC1	-6%	1.25
COC(=O)C[C@H]1CCCN1C(=O)c1cccc(C#CCO)c1	1%	-0.23
c1ccc(-n2cc(Cn3nccc3NCc3cncs3)cn2)cc1	-12%	1.6
CCOC(=O)c1cc(NC(=O)N2CCN(C)CC2)c(C)nc1C	-13%	1.56
CC(=O)N1CC[C@H](CN(C)S(=O)(=O)CCc2cccs2)C1	0%	0.04
O=C(O)[C@@H]1CCCN1c1nc(-c2ccccc2)c2cc(Br)ccc2n1	-11%	1.36
CC(C)(C)c1nc(CNC2[C@@H]3CCO[C@@H]3C2(C)C)n[nH]1 (some centres not stated)	-12%	2.3
O=C(c1cccc(-c2ncn[nH]2)c1)N1CCC[C@@](O)(C(F)(F)F)C1	-7%	1.48
Cc1nn(C)cc1C(=O)N1CCC(CCc2noc(N(C)C)n2)CC1	5%	-0.75

SMILES	% Inhibition	Z score
CC(CO)(CO)NCc1cc(F)c(F)cc1F	-2%	0.24
CN(CCc1ccccn1)[C@H]1CCCN(Cc2nc3ccc(F)cc3[nH]2)C1	0%	-0.03
CCOc1ccc(NC(=O)c2nn(-c3ccccc3)c3ccccc3c2=O)cc1	-1%	0.13
CN(Cc1cnccn1)C(=O)Nc1ccc(Br)c(F)c1	-11%	1.63
CCOc1ccc(CNC(=O)c2ccc(-c3noc(-c4ccccc4)n3)s2)cc1OC	4%	-0.63
Cc1nn(C)c(Cl)c1CNc1nn(CC(F)(F)F)cc1Cl	-9%	1.23
Cc1nccn1[C@@H](C)C(=O)NC1CCN(c2cnccn2)CC1	-13%	1.83
Clc1ccc(NC2(c3noc([C@@H]4CCCCO4)n3)CCC2)cc1	35%	-4.67
COc1ccccc1C1=NS(=O)(=O)N(C)C(C(=O)N2CCN(c3ccccc3)CC2)=C1	2%	-0.47
Cc1nnc(COC(=O)c2nccnc2N)o1	-5%	0.81
Cc1cc(Cl)c2oc(C(=O)N(Cc3ccccn3)C[C@@H]3CCC(=O)N3)c(C)c2c1	-12%	1.82
O=C(Nc1ccccc1F)N1CCC(OC[C@H]2CCCO2)CC1	7%	-0.9
c1ccc(-n2ncc(CN3CC(n4cccn4)C3)n2)cc1	-19%	2.39
CC[C@@H](CO)N1CCN(S(=O)(=O)c2cccc(NC(=O)c3ccn(C(C)C)n3)c2)CC1	-9%	1.53
COC(=O)C1C2CCCC2CN1C(=O)Cc1c(C)nn(C)c1C (configuration not stated)	0%	-0.03
CCC(NC(=O)N1CCOCC1C1CC1)c1c(C)noc1C (configuration not stated)	-11%	2.02
O=C(c1ccc2ncccc2c1)N(CCN1CCCC1)C1CCOCC1	-6%	1
O=C(c1nn(-c2ccc(F)cc2)cc1O)N1CC[C@H](c2c(F)cccc2F)C1	-9%	1.03
O=C(c1cccc(F)c1)N1CCN(c2nnc3ccc(C(F)(F)F)cn23)CC1	26%	-2.92
CCCOc1ccc(CN2C(=O)c3ccc4c5c(ccc(c35)C2=O)CC4)cc1OC	-13%	1.82
